Data: the supplement of paper PMC4967469
Lines with a small IC50 respond at low doses; where the fit passes the top or lowest dose, that dose stands as a limit. AUC sums up the same curve from the lowest dose to the 256-fold higher top dose; it is 1 without any effect and falls as sensitivity rises. The top dose, if marked as inferred, was derived from the fitted curves, not read from the paper.

Compound: CC1=C(C(=O)Nc2cc3cn[nH]c3cc2F)C(c2ccc(C(F)(F)F)cc2)CC(=O)N1 [GSK429286A]
Assay: Viability of human cancer cell lines after 72 h of drug (GDSC screen)
Settings: top dose inferred
Protocol: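 Human cancer cell lines in 384-well plates, medium with 10% serum, drug for 72 h over a 256-fold dose range (nine 2-fold or five 4-fold steps up to the top dose). Adherent lines were fixed and stained with the nucleic acid dye Syto60, suspension lines read with resazurin; signal relative to control wells, capped at 0 and 100%. One two-parameter sigmoid per drug and line, fitted in a mixed model over all curves with the slope shared within a line.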

Point of comparison: “H2803 (mesothelioma, adherent, top dose 20 µM)”, AUC 0.974. Against it:
- HOP-92 (large cell lung carcinoma, adherent, top dose 20 µM) — higher, 0.984
- NCI-H1975 (lung adenocarcinoma, adherent, top dose 20 µM) — lower, 0.926
- RF-48 (stomach, adherent, top dose 20 µM) — lower, 0.949
- OVCA433 (ovary, adherent, top dose 20 µM) — lower, 0.965
- BB30-HNC (head and neck, adherent, top dose 20 µM) — higher, 0.982
- RMG-I (ovary, adherent, top dose 20 µM) — higher, 0.983
- NB69 (neuroblastoma, adherent, top dose 20 µM) — lower, 0.945
- ES3 (Ewing sarcoma, adherent, top dose 20 µM) — lower, 0.943
- HCC-56 (large intestine, adherent, top dose 20 µM) — higher, 0.987
- NCI-H748 (small cell lung carcinoma, suspension, top dose 20 µM) — higher, 0.978
- A2058 (melanoma, adherent, top dose 20 µM) — lower, 0.959
- huH-1 (liver, adherent, top dose 20 µM) — higher, 0.984
- PCI-6A (head and neck, adherent, top dose 20 µM) — lower, 0.965
- C32 (melanoma, adherent, top dose 20 µM) — higher, 0.987
- NCI-H630 (large intestine, adherent, top dose 20 µM) — higher, 0.987
- ML-2 (acute myeloid leukaemia, suspension, top dose 20 µM) — lower, 0.575
- JURL-MK1 (chronic myeloid leukaemia, suspension, top dose 20 µM) — lower, 0.945
- SF539 (glioma, adherent, top dose 20 µM) — lower, 0.959
- K2 (melanoma, adherent, top dose 20 µM) — higher, 0.976
- MFH-ino (soft tissue, adherent, top dose 20 µM) — higher, 0.975
- CL-11 (large intestine, adherent, top dose 20 µM) — higher, 0.987
- BCPAP (thyroid, adherent, top dose 20 µM) — higher, 0.978
- LAN-6 (neuroblastoma, adherent, top dose 20 µM) — higher, 0.985
- SISO (cervix, adherent, top dose 20 µM) — lower, 0.959
- SK-LU-1 (lung adenocarcinoma, adherent, top dose 20 µM) — higher, 0.98
- SU-DHL-1 (anaplastic large cell lymphoma, suspension, top dose 20 µM) — higher, 0.992
- SK-N-FI (neuroblastoma, adherent, top dose 20 µM) — higher, 0.977
- MKN45 (stomach, adherent, top dose 20 µM) — higher, 0.98
- HCE-4 (oesophagus, adherent, top dose 20 µM) — higher, 0.986
- SUP-M2 (anaplastic large cell lymphoma, suspension, top dose 20 µM) — lower, 0.887
- KP-N-YN (neuroblastoma, adherent, top dose 20 µM) — lower, 0.958
- HCC1500 (breast, adherent, top dose 10.24 µM) — higher, 0.988
- LS-1034 (large intestine, adherent, top dose 20 µM) — higher, 0.985
- IST-SL1 (small cell lung carcinoma, semi-adherent, top dose 20 µM) — lower, 0.92
- COR-L105 (lung adenocarcinoma, adherent, top dose 20 µM) — lower, 0.915
- LCLC-97TM1 (large cell lung carcinoma, adherent, top dose 20 µM) — higher, 0.982
- KGN (ovary, adherent, top dose 20 µM) — lower, 0.966
- JEG-3 (urogenital system, adherent, top dose 20 µM) — higher, 0.991
- A388 (skin, adherent, top dose 20 µM) — higher, 0.983

Point of comparison: “SUP-M2 (anaplastic large cell lymphoma, suspension, top dose 20 µM)”, IC50 13.3 µM. Against it:
- HOP-92 (large cell lung carcinoma, adherent, top dose 20 µM) — higher, > 20 µM
- NCI-H1975 (lung adenocarcinoma, adherent, top dose 20 µM) — higher, > 20 µM
- RF-48 (stomach, adherent, top dose 20 µM) — higher, > 20 µM
- OVCA433 (ovary, adherent, top dose 20 µM) — higher, > 20 µM
- BB30-HNC (head and neck, adherent, top dose 20 µM) — higher, > 20 µM
- RMG-I (ovary, adherent, top dose 20 µM) — higher, > 20 µM
- NB69 (neuroblastoma, adherent, top dose 20 µM) — higher, > 20 µM
- ES3 (Ewing sarcoma, adherent, top dose 20 µM) — higher, > 20 µM
- HCC-56 (large intestine, adherent, top dose 20 µM) — higher, > 20 µM
- NCI-H748 (small cell lung carcinoma, suspension, top dose 20 µM) — higher, > 20 µM
- A2058 (melanoma, adherent, top dose 20 µM) — higher, > 20 µM
- huH-1 (liver, adherent, top dose 20 µM) — higher, > 20 µM
- PCI-6A (head and neck, adherent, top dose 20 µM) — higher, > 20 µM
- C32 (melanoma, adherent, top dose 20 µM) — higher, > 20 µM
- H2803 (mesothelioma, adherent, top dose 20 µM) — higher, > 20 µM
- NCI-H630 (large intestine, adherent, top dose 20 µM) — higher, > 20 µM
- ML-2 (acute myeloid leukaemia, suspension, top dose 20 µM) — 6.8-fold lower, 1.96 µM
- JURL-MK1 (chronic myeloid leukaemia, suspension, top dose 20 µM) — higher, > 20 µM
- SF539 (glioma, adherent, top dose 20 µM) — higher, > 20 µM
- K2 (melanoma, adherent, top dose 20 µM) — higher, > 20 µM
- MFH-ino (soft tissue, adherent, top dose 20 µM) — higher, > 20 µM
- CL-11 (large intestine, adherent, top dose 20 µM) — higher, > 20 µM
- BCPAP (thyroid, adherent, top dose 20 µM) — higher, > 20 µM
- LAN-6 (neuroblastoma, adherent, top dose 20 µM) — higher, > 20 µM
- SISO (cervix, adherent, top dose 20 µM) — higher, > 20 µM
- SK-LU-1 (lung adenocarcinoma, adherent, top dose 20 µM) — higher, > 20 µM
- SU-DHL-1 (anaplastic large cell lymphoma, suspension, top dose 20 µM) — higher, > 20 µM
- SK-N-FI (neuroblastoma, adherent, top dose 20 µM) — higher, > 20 µM
- MKN45 (stomach, adherent, top dose 20 µM) — higher, > 20 µM
- HCE-4 (oesophagus, adherent, top dose 20 µM) — higher, > 20 µM
- KP-N-YN (neuroblastoma, adherent, top dose 20 µM) — higher, > 20 µM
- HCC1500 (breast, adherent, top dose 10.24 µM) — not separable, > 10.2 µM
- LS-1034 (large intestine, adherent, top dose 20 µM) — higher, > 20 µM
- IST-SL1 (small cell lung carcinoma, semi-adherent, top dose 20 µM) — higher, > 20 µM
- COR-L105 (lung adenocarcinoma, adherent, top dose 20 µM) — higher, > 20 µM
- LCLC-97TM1 (large cell lung carcinoma, adherent, top dose 20 µM) — higher, > 20 µM
- KGN (ovary, adherent, top dose 20 µM) — higher, > 20 µM
- JEG-3 (urogenital system, adherent, top dose 20 µM) — higher, > 20 µM
- A388 (skin, adherent, top dose 20 µM) — higher, > 20 µM
